Test results published in article PMC12102759 (2025).

Biological target: N_(12-26) wild-type peptide
Experiment: FP

B1: G3BP1 NTF2-like domain ([…]), tag cleaved, for FP (domain or fragment)
chain: not shown
With B1 as the binder, how does the Kd read?
The Kd was 2 µM.
